# Assay results published in PubChem BioAssay (Tox21).
# “And” between values parts separate entries of the source, which are not always exact repeats. Equal values may be shown once. Inconclusive results, whose numbers are uncertain, are shown with a selection of clear calls. For some assays here: Where the call is inconclusive, the potency comes from a doubtful curve fit. More than one record can exist for a structure, and the calls need not agree. The source made the active and inactive calls. Unless noted, calls follow the shape of the dose curve; as a rule, active = well fitted curve in the direction sought with a large enough effect in the repeat runs; inconclusive = weak or mixed curves; inactive = no such curve, though single readings can be large; an effect the other way counts as inactive or inconclusive.
# Assays:
# [1] = qHTS assay to identify small molecule agonists of the RXR signaling pathway - cell viability counter screen (AID 1159529); also: nearly all actives have a fitted effect of over 50% in size
# Method in brief: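 HEK 293T RXRa-bla cells, 2% CS-FBS; 5 h settle; cpd 16 h 37 C, 5% CO2; CellTiter-Glo 30 min RT, luminescence. Tetraoctyl ammonium bromide as positive control.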
# [2] = target: Retinoic acid receptor RXR-alpha (Homo sapiens) (UniProt P19793); assay: qHTS assay to identify small molecule agonists of the RXR signaling pathway (AID 1159527; calls by dose curve; also: nearly all actives have a fitted effect of over 35% in size; as to activation: % is scaled to controls: 0 for no effect and ±100 for the full control effect); settings: HEK293T RXRa-UAS-bla, beta-lactamase ratio, 16 h; activation: at 76.8 µM (top of the series) unless noted
# Sequence of UniProt P19793 (P19793 whole entry, looked up): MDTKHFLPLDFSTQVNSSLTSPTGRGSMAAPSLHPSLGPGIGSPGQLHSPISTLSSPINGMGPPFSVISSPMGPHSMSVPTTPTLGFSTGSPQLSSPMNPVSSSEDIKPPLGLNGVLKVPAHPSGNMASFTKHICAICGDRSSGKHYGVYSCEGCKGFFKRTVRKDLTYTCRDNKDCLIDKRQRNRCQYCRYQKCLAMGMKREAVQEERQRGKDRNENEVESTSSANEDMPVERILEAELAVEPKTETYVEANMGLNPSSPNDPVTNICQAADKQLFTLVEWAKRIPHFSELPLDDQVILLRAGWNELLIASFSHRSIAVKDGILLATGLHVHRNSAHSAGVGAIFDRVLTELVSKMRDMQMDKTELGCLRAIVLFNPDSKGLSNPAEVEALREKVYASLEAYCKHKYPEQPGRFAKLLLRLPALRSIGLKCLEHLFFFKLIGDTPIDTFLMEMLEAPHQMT
# Method in brief: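 Read-out: beta-lactamase FRET ratio (405 nm excitation, 460 and 530 nm emission) after 2 hr substrate loading at room temperature. Cells were RXR-alpha-UAS-bla HEK 293T treated with compounds for 16 hr in 2% charcoal-stripped FBS medium.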
# [3] = qHTS assay to identify small molecule agonists of the retinoic acid receptor (RAR) signaling pathway (AID 1159553); settings: C3RL4 RARE luciferase reporter, agonist, 6 h; activation: at 73.3 µM (top of the series) unless noted; as to activation: % is scaled to controls: 0 for no effect and ±100 for the full control effect
# Method in brief: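 In this cell-based screen, 1,000 C3RL4 cells per well were cultured overnight, dosed with test chemicals in DMSO for 6 hr, and assessed for RARE luciferase luminescence.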
# [4] = qHTS assay to identify small molecule antagonists of the estrogen related receptor (ERR) signaling pathway - cell viability counter screen (AID 1224818)
# Method in brief: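 Viability of ERR cells, CellTiter-Fluor fluorescence; 17.5 h compound exposure at 37 C, DMSO vehicle; 30 min reagent incubation at 37 C/5% CO2.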
# [5] = qHTS assay to identify small molecule antagonists of the estrogen related receptor (ERR) signaling pathway (AID 1224819; also: nearly all actives have a fitted effect of over 50% in size)
# Method in brief: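 Seed ERR cells 2,000/well; rest 6 h at 37 C/5% CO2; pin compounds in DMSO; incubate 18 h at 37 C; add One-Glo; wait 30 min at room temperature; measure luminescence.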
# [6] = system: estrogen-related receptor alpha (ERRalpha) with PGC-1alpha coactivator, human; assay: qHTS assay to identify small molecule antagonists of the estrogen related receptor signaling pathway with the pleiotropic PPARgamma coactivator (PGC) (AID 1224821; calls by dose curve; also: nearly all actives have a fitted effect of over 50% in size)
# Method in brief: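 A PGC/ERR cell line supplied by NTP is seeded, allowed 6 h at 37 C, and treated with test compounds in DMSO for 18 h. Signal is then measured as luciferase luminescence using One-Glo.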
# [7] = qHTS assay to identify small molecule antagonists of the estrogen related receptor signaling pathway with the pleiotropic PPARgamma coactivator (PGC) cell viability counter screen (AID 1224822)
# Method in brief: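 17.5 h compound treatment of PGC/ERR cells at 37 C; readout CellTiter-Fluor fluorescence; run alongside the PGC/ERR antagonist screen to flag cytotoxic compounds.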
# [8] = qHTS assay to identify small molecule antagonists of the retinoid acid receptor (RAR) signaling pathway - cell viability counter screen (AID 1159551); also: nearly all actives have a fitted effect of over 35% in size
# Method in brief: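 In this counter screen, the RARE-luciferase line C3RL4 was exposed for 6 h at 37 C and 5% CO2 to compounds with retinol at 1 uM final. Cellular ATP, read by luminescence, served as the viability measure.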
# [9] = qHTS assay to identify small molecule antagonists of the retinoic acid receptor (RAR) signaling pathway (AID 1159552; also: nearly all actives have a fitted effect of over 50% in size)
# Method in brief: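 Cells of the C3RL4 line were seeded, incubated overnight, then dosed with compounds in DMSO followed immediately by retinol (1 uM final). Six hours later luciferase detection reagent went in; signal was measured after 30 min at RT.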
# Potency is read from the fitted curve at half-maximal effect; tags tell the direction and shape of the fitted curve or compound fluorescence and quenching.
compound,measurement,setting,value
CNC(=O)c1cnn(-c2nc(N)c3ncn([C@@H]4O[C@H](CO)[C@@H](O)[C@H]4O)c3n2)c1,Potency,[1],"inconclusive: 4.77 µM [rising, full curve, poor fit]"
CNCC[C@H](Oc1cccc2ccccc12)c1cccs1,Potency,[2],inconclusive: 9.52 µM [inhibitor]
same,Potency,[3],"inconclusive: 23.7 µM [inhibitor, partial curve]"
O=C(N/N=C/c1ccccc1O)c1ccncc1,activation,[2],inconclusive: -15.2% [at 35.3 µM]
same,Potency,[3],active: 29.8 µM
CCC(C)(C)CC,Potency,[2],inactive
same,Potency,[3],"inconclusive: 45.4 µM [inhibitor, partial curve, poor fit]"
CC[C@@]1(O)C(=O)OCc2c1cc1n(c2=O)Cc2cc3c(CN(C)C)c(O)ccc3nc2-1,Potency,[2],"inconclusive: 19 µM [rising, partial curve]"
same,Potency,[4],"inconclusive: 21.1 µM [rising, partial curve]"
same,Potency,[5],active: 0.75 µM
same,Potency,[6],inconclusive: 2.11 µM [inhibitor]
same,Potency,[7],inconclusive: 22.8 µM
C=CCON/C(CCC)=C1\C(=O)CC(C)(C)C(C(=O)OC)=C1O,Potency,[1],inactive
COc1ccccc1OCC(O)CN1CCN(CC(=O)Nc2c(C)cccc2C)CC1 (stereo not drawn),Potency,[2],inactive
same,Potency,[3],inactive
O=c1c(O)c(-c2ccc(O)c(O)c2)oc2cc(O)cc(O)c12,Potency,[2],"inconclusive: 22.1 µM [inhibitor, partial curve, poor fit] and inconclusive: 9.77 µM [activator, partial curve, poor fit]"
same,Potency,[3],active: 61.2 µM [middle of 4 runs]
same,Potency,[4],inconclusive: 29.8 µM [cytotoxic]
O=P(O)(O)OCC(O)CO (stereo not drawn),Potency,[1],inactive
CCc1cccc2c(CCO)c[nH]c12,Potency,[1],inactive
CCCCCOc1ccccc1/C(=C\SC)n1ccnc1,activation,[2],inconclusive: -21.2% [at 35.3 µM]
same,Potency,[3],active: 33.5 µM
CN=C(NC#N)Nc1ccc(C2=NNC(=O)CC2C)cc1 (stereo not drawn),Potency,[1],inactive
Cc1cc(S(=O)(=O)O)c(N)cc1Cl,Potency,[1],inactive
Fc1ccc(C(c2ccc(F)cc2)N2CCNCC2)cc1,Potency,[1],"inconclusive: 0.756 µM [cytotoxic, full curve]"
Oc1cccc(Nc2ccccc2)c1,Potency,[2],inactive
same,Potency,[3],"inconclusive: 0.18 µM [activator, full curve, poor fit]"
c1ccc(Cc2ccccc2)cc1,Potency,[1],inactive
N#Cc1ccccc1O,Potency,[2],inactive
same,Potency,[3],inactive
C=CCOCC(O)CS(=O)(=O)O (stereo not drawn),Potency,[1],inactive
CCOC(=O)CC(C(C)=O)C(C)=O,Potency,[1],inactive
C[C@@H]1C[C@H]2[C@@H]3CCC4=CC(=O)C=C[C@]4(C)[C@@]3(F)[C@@H](O)C[C@]2(C)[C@@]1(O)C(=O)COP(=O)(O)O,Potency,[1],inactive
Oc1ccc(Cc2ccccc2)cc1,Potency,[1],"inconclusive: 50.9 µM [cytotoxic, partial curve, poor fit]"
COC(=O)c1cc(S(N)(=O)=O)ccc1OC,Potency,[2],inactive
same,Potency,[3],inactive
COC(=O)C1=C(C)NC(COC(N)=O)=C(C(=O)OC(C)C)C1c1cccc(Cl)c1Cl (stereo not drawn),Potency,[1],"inconclusive: 30.1 µM [cytotoxic, single point]"
Cc1ccc(C(=O)c2ccccc2)cc1,Potency,[2],inactive
same,Potency,[3],"inconclusive: 61.1 µM [activator, partial curve, poor fit]"
CCCCCCCCCCCCCC,Potency,[1],inactive
O=NN(CCCl)C(=O)NCCCl,Potency,[2],"inconclusive: 26.8 µM [activator, single point]"
same,Potency,[6],inactive
same,Potency,[7],inactive
Cc1nc2n(c(=O)c1CCN1CCC(c3noc4cc(F)ccc34)CC1)CCCC2,Potency,[1],"inconclusive: 9.52 µM [cytotoxic, partial curve, poor fit]"
C=CCCC(=O)/C=C/C1C(C)=CCCC1(C)C (stereo not drawn),Potency,[1],"inconclusive: 1.38 µM [rising, full curve, poor fit]"
O=C(c1ccccc1)c1cc(Cl)ccc1O,Potency,[1],"inconclusive: 23.3 µM [cytotoxic, full curve]"
O=C(Cl)c1cc(C(=O)Cl)cc(C(=O)Cl)c1,Potency,[2],inactive
same,Potency,[3],inconclusive: 68.6 µM [inhibitor]
CN(C)CCOC(C)(c1ccccc1)c1ccccn1 (stereo not drawn),Potency,[2],"inconclusive: 43.7 µM [activator] and inconclusive: 61.7 µM [fluorescent, single point]"
same,Potency,[4],inactive
same,Potency,[6],inactive
O=C(c1ccc(F)cc1)C1CCN(CCn2c(=S)[nH]c3ccccc3c2=O)CC1,Potency,[2],inconclusive: 9.52 µM
same,Potency,[3],inconclusive: 13.3 µM [activator]
O=[N+]([O-])c1ccccc1CCO,activation,[2],inconclusive: 18.3%
same,Potency,[3],inactive
COC(=O)[C@H]1[C@H]2C[C@@H]3c4[nH]c5cc(OC)ccc5c4CCN3C[C@H]2C[C@@H](OC(=O)c2cc(OC)c(OC)c(OC)c2)[C@@H]1OC,Potency,[2],inconclusive: 21.8 µM and inconclusive: 15.9 µM and inconclusive: 21.3 µM [partial curve]
same,Potency,[5],active: 21.1 µM
same,Potency,[6],inconclusive: 26.6 µM [inhibitor]
same,Potency,[7],inconclusive: 31 µM [cytotoxic]
O=C(Cl)c1ccc([N+](=O)[O-])cc1,Potency,[1],"inconclusive: 0.481 µM [cytotoxic, single point]"
CCCCCCCCCCCC[N+](C)(C)Cc1ccccc1,Potency,[1],active: 6.78 µM and active: 8.43 µM and active: 1.69 µM
same,Potency,[8],active: 60 µM and active: 74.5 µM and inconclusive: 33.5 µM [cytotoxic]
same,Potency,[3],"inconclusive: 15.1 µM [inhibitor, partial curve, poor fit] and inconclusive: 37.4 µM [inhibitor] and inconclusive: 26.6 µM [inhibitor]"
c1ccc2sc(SSN3CCOCC3)nc2c1,Potency,[1],"inconclusive: 49 µM [cytotoxic, partial curve, poor fit]"
same,Potency,[8],active: 61 µM and inconclusive: 61.1 µM [cytotoxic]
same,Potency,[9],"inconclusive: 68.5 µM [inhibitor, single point] and inconclusive: 68.6 µM [inhibitor, single point]"
same,Potency,[3],"inconclusive: 30.6 µM [inhibitor, full curve]"
O=C(Oc1ccccc1)c1ccccc1O,Potency,[1],"inconclusive: 61.9 µM [cytotoxic, partial curve, poor fit]"
same,Potency,[3],"inconclusive: 33.5 µM [activator, partial curve, poor fit]"
same,activation,[3],inconclusive: 8.97% [phenotype inactive]
CCN(CC)c1ccc(C(=C2C=CC(=[N+](CC)CC)C=C2)c2ccc(S(=O)(=O)O)cc2S(=O)(=O)[O-])cc1,Potency,[1],"inconclusive: 24.5 µM [cytotoxic, full curve]"
same,Potency,[8],active: 15.4 µM
same,Potency,[3],"inconclusive: 8.63 µM [inhibitor, partial curve]"
COc1cccc2c1C(=O)c1c(O)c3c(c(O)c1C2=O)C[C@@](O)(C(C)=O)C[C@@H]3O[C@H]1C[C@H](N)[C@H](O)[C@H](C)O1,Potency,[1],"inconclusive: 1.96 µM [cytotoxic, partial curve, poor fit] and inconclusive: 26.8 µM [cytotoxic, single point]"
same,Potency,[8],"inconclusive: 69 µM [cytotoxic, single point]"
CN(C)c1ccc2nc3ccc(=[N+](C)C)cc-3sc2c1,Potency,[1],"inconclusive: 54.9 µM [cytotoxic, single point]"
same,Potency,[8],active: 13.1 µM and active: 30.6 µM and active: 23.7 µM
same,Potency,[3],active: 2.94 µM and active: 1.37 µM and active: 1.68 µM
O=C(O)C(c1ccc(Cl)cc1)c1ccc(Cl)cc1,Potency,[1],inactive
CC(=O)Oc1ccccc1C(=O)Nc1ncc([N+](=O)[O-])s1,Potency,[1],inactive
same,Potency,[8],"inconclusive: 17.6 µM [cytotoxic, full curve] and inconclusive: 26.6 µM [cytotoxic, partial curve]"
CCCC(C)c1ccccc1O (stereo not drawn),Potency,[1],"inconclusive: 54.9 µM [cytotoxic, single point]"
same,Potency,[8],inactive
Cc1cn([C@H]2C[C@H](F)[C@@H](CO)O2)c(=O)[nH]c1=O,Potency,[1],inactive
same,Potency,[9],"inconclusive: 33.5 nM [inhibitor, full curve]"
CCCCCCCCCCCC[N+](C)(C)C,Potency,[1],active: 54.8 µM and active: 54.9 µM and active: 49 µM
same,Potency,[8],"inconclusive: 68.6 µM [cytotoxic, single point]"
same,Potency,[3],"inconclusive: 38.6 µM [inhibitor, partial curve, poor fit] and inconclusive: 77 µM [inhibitor, single point]"
CCCCOC(=O)C(=O)OCCCC,Potency,[8],inactive
CCCCC(CC)COP(=O)(O)OCC(CC)CCCC (stereo not drawn),Potency,[1],"inconclusive: 13.8 µM [cytotoxic, partial curve, poor fit]"
same,Potency,[9],active: 48600 nM
same,Potency,[3],"inconclusive: 61.1 µM [inhibitor, partial curve, poor fit]"
O=C(O)c1ccccc1Nc1cccc(C(F)(F)F)c1,Potency,[1],"inconclusive: 19.5 µM [cytotoxic, partial curve, poor fit]"
c1cnc2c(c1)ccc1cccnc12,Potency,[1],"inconclusive: 27.8 µM [cytotoxic, single point] and inconclusive: 11 µM [cytotoxic, partial curve, poor fit]"
same,Potency,[3],active: 2.19 µM and active: 9.69 µM and active: 2.73 µM
same,Potency,[4],inconclusive: 7.22 µM [cytotoxic]
same,Potency,[5],active: 2.98 µM
same,Potency,[7],active: 6.68 µM
